Source: the antibiotic and cytotoxicity screens of Wong et al. (2023)
This is one part of the list.

Tests used:
HSkMC = human skeletal muscle cells; assay: cytotoxicity call (relative viability < 0.9); details: 10 µM
HepG2 = assay: cytotoxicity call (relative viability < 0.9); details: 10 µM
S. aureus RN4220 = assay: growth inhibition call (relative growth <= 0.2); details: 50 µM

SMILES | cytotoxicity call (HSkMC) | cytotoxicity call (HepG2) | growth inhibition call (S. aureus RN4220)
Cc1ccc(S(=O)(=O)N(C)C[C@H]2OCCCC[C@@H](C)Oc3ccc(NC(=O)NC4CCCCC4)cc3C(=O)N([C@H](C)CO)C[C@H]2C)cc1 | inactive | active | inactive
Cn1cc(N2C[C@]3(CCN(CCO)C3)CC2=O)cn1 | inactive | inactive | inactive
CC(C)NC(=O)N(C)C[C@H]1OCCCC[C@@H](C)Oc2ccc(NS(C)(=O)=O)cc2C(=O)N([C@@H](C)CO)C[C@H]1C | inactive | inactive | inactive
C[C@H](CO)N1C[C@H](C)[C@H](CN(C)S(=O)(=O)c2cn(C)cn2)Oc2ccc(NS(=O)(=O)c3cccs3)cc2CC1=O | inactive | inactive | inactive
CC(C)NCC(O)COc1cccc2[nH]c3ccccc3c12 (stereo not drawn) | inactive | active | inactive
COc1ccc(-n2cc(C(=O)NO)nn2)cc1 | active | active | inactive
NCCc1nc(-c2ccncc2)no1 | inactive | inactive | inactive
Cc1noc(C)c1NC(=O)N(C)C[C@H]1Oc2c(NC(=O)C3CC3)cccc2C(=O)N([C@@H](C)CO)C[C@@H]1C | inactive | inactive | inactive
CNC(=O)C[C@H]1CC[C@H]2[C@H](COc3ccc(NC(=O)c4ccc(C(F)(F)F)cc4)cc3C(=O)N2C)O1 | inactive | inactive | inactive
C[C@H]1CCCCO[C@H](CN(C)Cc2ccc(Cl)c(Cl)c2)[C@@H](C)CN([C@@H](C)CO)C(=O)c2cc(NC(=O)CCC(F)(F)F)ccc2O1 | inactive | inactive | inactive
C[C@@H]1CN([C@H](C)CO)S(=O)(=O)c2ccc(C#Cc3ccncc3)cc2O[C@H]1CN(C)S(=O)(=O)c1ccccc1 | inactive | active | inactive
